Where “and” joins values, the source holds several entries; their conditions need not be identical. Identical values can stand only once. The full ranking holds about 13,000 compounds; the median of “IFI” is about 4, and the highest 2% start at about 17. Some of the results follow.

The assay can be described thus: GSK_TCMDC: Inhibition Frequency Index (IFI). The number of non-kinase HTS assays where a compound showed > 50 % inhibition, expressed as a percentage of the number of such assays in which the compound was tested (-0 is zero). Format: functional.
`O=C(Cc1cc(=O)oc2cc(O)ccc12)N1CCC(CN2CCC(c3c[nH]c4ccccc34)CC2)CC1` registered an IFI of 4.41%.
As to `CC[C@H]1CN2CC[C@@H]1C[C@H]2[C@H](O)c1cc(N2CCC(C(N)=O)CC2)nc2ccc(OC)cc12`, the IFI stood at 1.54%.
The result for `S=C(Nc1ccccc1Cl)NC1CCC(CN2CCC(c3c[nH]c4ccccc34)CC2)CC1` (stereo unspecified) reads 4.41%.
Consider `O=C(C=Cc1ccccc1Br)NC1CCC(CN2CCC(c3c[nH]c4ccccc34)CC2)CC1` (stereo unspecified), for which the IFI was 3.73% and 4.48%.
The result for `Cc1c(C(=O)N[C@@H](C)c2ccccc2)c2cc(O)c(Br)cc2n1C1CCCCC1` reads 3.85%; that for `CCCCCCCc1cc(=O)c2ccccc2[nH]1`, 2.08%; that for `O=C(/C=C/c1cc([N+](=O)[O-])ccc1Cl)NC1CCC(CN2CCC(c3c[nH]c4ccccc34)CC2)CC1` (stereo unspecified), 3.73%.
The result for `O=C(C=Cc1ccccc1C(F)(F)F)NC1CCC(CN2CCC(c3c[nH]c4ccccc34)CC2)CC1` (stereo unspecified) reads 4.51% and 4.48%.
`Cc1[nH]c2cc(Cl)ccc2c1C1=CCN(CCN2CCOc3c(Br)cccc3C2=O)CC1` registered an IFI of 3.65%.
The result for `CC(Cc1ccc(NC(=O)CCCc2ccccc2)cc1)NCCc1cccc(Cl)c1` (stereo unspecified) reads 4.29%.
`N#Cc1c(F)cc(N2CCC(NCC[C@H](N)Cc3ccc(F)c(F)c3)CC2)cc1F` yielded an IFI of 21.9%.
The result for `Oc1ccc(CN2CCN(CCOC(c3ccc(F)cc3)c3ccc(F)cc3)CC2)cc1Cl` reads 7.09%; that for `COc1cccc(C(=O)C2CC2CN2CC=C(c3c[nH]c4cccc(Br)c34)CC2)c1` (stereo unspecified), 3.31%.
The result for `Cc1ccc(C2(O)CC3CCC(C2)N3C)cc1` (stereo unspecified) reads -0%; that for `CN(c1ccnc(Nc2ccc(CS(C)(=O)=O)cc2)n1)C1CCN(Cc2ccccc2)CC1`, 4.58%.
`COc1ccc(C(=O)C2CC2CN2CC=C(c3c[nH]c4cccc(Br)c34)CC2)cc1` (stereo unspecified) yielded an IFI of 11.9%.
Regarding `CC1=C(C(=O)NC2CCC(CN3CCC(c4c[nH]c5ccccc45)CC3)CC2)Cc2ccccc21` (stereo unspecified), the IFI is 7.86% and 6.43%.
With `C#CCOc1ccc(CC(C)NCC(O)c2cccc(C(F)(F)F)c2)cc1` (stereo unspecified) the figure was 4.41% and 6.47%.
With `C/C=C1\CN2CC[C@H]1C[C@H]2[C@H](O)c1ccnc2ccc(O)cc12` the figure was -0%; with `CCC(C)(C)NC(C)C(O)c1ccc(C(F)(F)F)cc1` (stereo unspecified), 0.8%; with `COc1ccc(OC)c(CNCC(O)c2cc(C(F)(F)F)cc(C(F)(F)F)c2)c1` (stereo unspecified), 2.61%.
The result for `O=C(/C=C/c1ccc(Cl)c(Cl)c1)NC1C2CCC1CC(CN1CCC(c3c[nH]c4ccccc34)CC1)C2` (stereo unspecified) reads 5.97%; that for `CCc1ccc(CN2CCC(CN(C(=O)c3ccccc3)c3ccc(Cl)cc3)CC2)cc1`, 7.2%.
On to `CCCCC1(NC(=O)[C@H](CC(C)C)Nc2ccc(C#N)c3ccccc23)CCCCC1`, for which the IFI is 0.97%.
With `Brc1cnc(NC2=NCCN2)c(Br)c1` the figure was 1.46%; with `CC1(C)N=C(N)N=C(N)N1c1ccc([N+](=O)[O-])cc1`, 0.73%; with `Cc1c(C)c2c(c(C)c1O)CC[C@@](C)(C(=O)N1CCC(CN3CCC(c4c[nH]c5ccccc45)CC3)CC1)O2`, 6.87%.
The result for `CCC1(C)CC(CCNCc2ccccc2O)(c2ccc(C)cc2)CCO1` (stereo unspecified) reads 1.47%; that for `CCOC(=O)c1ccc(CC(C)NCC(O)c2cccc(C(F)(F)F)c2)cc1` (stereo unspecified), 2.9%.
With `CC[C@H]1CN2CC[C@H]1C[C@H]2[C@H](O)c1cc(-c2ccccc2C(F)(F)F)nc2ccc(OC)cc12` the figure was 2.86%; with `COc1ccc(OC)c(C(O)C(C)NCc2cc(Cl)ccc2O)c1` (stereo unspecified), 0.71%.
Take `COC(=O)c1ccc(CC(C)NCC(O)c2cccc(OC(F)(F)F)c2)cc1` (stereo unspecified): the IFI turned out to be 4.38%.
Take `FC(F)(F)c1cccc(N2CCC(CN3CCC(c4c[nH]c5ccccc45)CC3)CC2)n1`: the IFI was determined as 4.62%.
With `CC[C@H]1CN2CC[C@H]1C[C@H]2[C@@H](O)c1cc(OCCCN(C)C)nc2ccc(OC)cc12` the figure was 0.71%; with `CC[C@H]1CN2CC[C@H]1C[C@@H]2[C@@H](O)c1ccnc2ccccc12`, 1.5%.
The result for `Cc1cc(N)nc2ccc(CNCCc3ccccc3Br)cc12` reads 6.43%.
`COCCSc1ccc(CC(C)NCC(O)c2cccc(Cl)c2)cc1` (stereo unspecified) came in with an IFI of 4.35%.
With `CC(C)CNCc1ccc(-c2ccc(CN(C(=O)NC3CCCCC3)C3CCN(Cc4ccccc4)CC3)cc2)cc1` the figure was 8.46%; with `Oc1ccc(CN2CCN(CCOC(c3ccccc3)c3ccccc3)CC2)cc1Cl`, 3.57%.
With `O=C(CCC(=O)c1ccc2c3c(cccc13)CC2)NC1CCC(CN2CCC(c3c[nH]c4ccccc34)CC2)CC1` (stereo unspecified) the figure was 3.76%; with `O=C(/C=C/c1cc(C(F)(F)F)ccc1F)N1CCC(CN2CCC(c3c[nH]c4ccccc34)CC2)CC1`, 1.5%.
With `COc1ccc(C(=O)C2CC2CN2CC=C(c3c[nH]c4ccc(OC)nc34)CC2)cc1` (stereo unspecified) the figure was 2.94%; with `O=C(/C=C/c1ccc(C(F)(F)F)cc1)NC1CCC(CN2CCC(c3c[nH]c4ccccc34)CC2)CC1` (stereo unspecified), 7.09% and 5.88%; with `O=C(NC1CCC(CN2CCC(c3c[nH]c4ccccc34)CC2)CC1)c1csc(-c2cccc(Cl)c2Cl)n1` (stereo unspecified), 4.29%.
As to `O=C(/C=C/c1ccc(Cl)c(Cl)c1)N1CCC(CN2CCC(c3c(-c4ccccc4)[nH]c4ccccc34)CC2)CC1`, the IFI was determined as 6.47%.
With `COCCNCc1ccc(-c2ccc(CN(C(=O)Nc3ccccc3)C3CCN(Cc4ccccc4)CC3)cc2)cc1` the figure was 5.88%; with `Cc1c(C)c2c(c(C)c1O)CC[C@@](C)(C(=O)NC1CCC(CN3CCC(c4c[nH]c5ccccc45)CC3)CC1)O2` (stereo partly specified), 7.52%; with `O=C(CC1CCCC1)N(CC1CCN(Cc2ccc(C(F)(F)F)cc2)CC1)c1ccc(N2CCOCC2)c(F)c1`, 3.1%.
The result for `COc1cc2nc(N(C)C3CCN(Cc4ccccc4)CC3)nc(N)c2cc1OC` reads 3.25%.
For `O=C(/C=C/c1ccc(Cl)c(Cl)c1)NC1CCC(CN2CCC(c3c[nH]c4ccccc34)CC2)CC1` (stereo unspecified), the IFI turned out to be 5.26%.
The result for `Cc1ccc(CC(C)NCC(O)c2cccc(Cl)c2)cc1F` (stereo unspecified) reads 2.82%; that for `Cn1nc(-c2ccc(S(=O)(=O)N3CCC(CN4CCC(c5c[nH]c6ccccc56)CC4)CC3)s2)cc1C(F)(F)F`, 4.26%; that for `CCCc1cc([C@@H](O)[C@@H]2C[C@@H]3CCN2C[C@@H]3CC)c2ccccc2n1`, 1.46%.
The result for `O=C(/C=C/c1ccc(Cl)c(Cl)c1)NCC1CCC(CN2CCC(c3c[nH]c4ccccc34)CC2)CC1` (stereo unspecified) reads 9.86%.
With `O=C(Nc1ccc(Oc2ccccc2)cc1)NC1CCC(CN2CCC(c3c[nH]c4ccccc34)CC2)CC1` (stereo unspecified) the figure was 7.86%; with `O=C(/C=C/c1cc(F)cc(C(F)(F)F)c1)N1CCC(CN2CCC(c3c[nH]c4ccccc34)CC2)CC1`, 3.52%.

The values above are taken from ChEMBL document CHEMBL1157539, “Thousands of chemical starting points for antimalarial lead identification” (Nature, 2010).
